# Laboratory results reported in the supplement of paper PMC8728848.
# The other results are listed elsewhere or left out.
# What was measured:
# Test in all cases: glycan array binding signal (z-score within array); higher = stronger binding
# Conditions in all cases: glycan notation: IUPAC condensed, linker removed
# [1] = molecular target: Fuc(a1-2)Gal
# How it was run: (§1)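 Glycan array binding is given as a within-array Z-score, which can be read as non-binding when negative. The arrays, 3228 of them, came from the Consortium for Functional Glycomics database and were retained only where the protein sequence was available. Z-scores were averaged across arrays of the same protein sequence at different concentrations or buffers and across linkers.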
# [2] = molecular target: Fuc(a1-2)Gal(b1-3)GalNAc
# How it was run: as §1
# [3] = molecular target: Fuc(a1-2)Gal(b1-3)GalNAc(a1-3)[Fuc(a1-2)]Gal(b1-4)Glc
# How it was run: as §1
# [4] = molecular target: Fuc(a1-2)Gal(b1-3)GalNAc(a1-3)[Fuc(a1-2)]Gal(b1-4)GlcNAc
# How it was run: as §1
# [5] = molecular target: Fuc(a1-2)Gal(b1-3)GalNAc(b1-3)Gal
# How it was run: as §1
# [6] = molecular target: Fuc(a1-2)Gal(b1-3)GalNAc(b1-3)Gal(a1-4)Gal(b1-4)Glc
# How it was run: as §1
# [7] = molecular target: Fuc(a1-2)Gal(b1-3)GalNAc(b1-4)[Neu5Ac(a2-3)]Gal(b1-4)Glc
# How it was run: as §1
# [8] = molecular target: Fuc(a1-2)Gal(b1-3)GlcNAc
# How it was run: as §1
# [9] = molecular target: Fuc(a1-2)Gal(b1-3)GlcNAc(b1-2)Man(a1-3)[Fuc(a1-2)Gal(b1-3)GlcNAc(b1-2)Man(a1-6)]Man(b1-4)GlcNAc(b1-4)GlcNAc
# How it was run: as §1
# [10] = molecular target: Fuc(a1-2)Gal(b1-3)GlcNAc(b1-2)Man(a1-3)[Fuc(a1-2)Gal(b1-3)GlcNAc(b1-2)Man(a1-6)]Man(b1-4)GlcNAc(b1-4)[Fuc(a1-6)]GlcNAc
# How it was run: as §1
# [11] = molecular target: Fuc(a1-2)Gal(b1-3)GlcNAc(b1-3)Gal(b1-4)Glc
# How it was run: as §1
# [12] = molecular target: Fuc(a1-2)Gal(b1-3)GlcNAc(b1-3)GalNAc
# How it was run: as §1
# [13] = molecular target: Fuc(a1-2)Gal(b1-3)GlcNAc(b1-3)[Fuc(a1-2)Gal(b1-3)GlcNAc(b1-6)]GalNAc
# How it was run: as §1
# [14] = molecular target: Fuc(a1-2)Gal(b1-3)GlcNAc(b1-3)[Gal(b1-4)GlcNAc(b1-6)]Gal(b1-4)Glc
# How it was run: as §1
# [15] = molecular target: Fuc(a1-2)Gal(b1-3)GlcNAc(b1-3)[Neu5Ac(a2-6)Gal(b1-4)GlcNAc(b1-6)]Gal(b1-4)Glc
# How it was run: as §1
# [16] = molecular target: Fuc(a1-2)Gal(b1-3)GlcNAc6S
# How it was run: as §1
# [17] = molecular target: Fuc(a1-2)Gal(b1-3)[Fuc(a1-4)]GlcNAc
# How it was run: as §1
# [18] = molecular target: Fuc(a1-2)Gal(b1-3)[Fuc(a1-4)]GlcNAc(b1-2)Man(a1-3)[Fuc(a1-2)Gal(b1-3)[Fuc(a1-4)]GlcNAc(b1-2)Man(a1-3)]Man(b1-4)GlcNAc(b1-4)GlcNAc
# How it was run: as §1
# [19] = molecular target: Fuc(a1-2)Gal(b1-3)[Fuc(a1-4)]GlcNAc(b1-2)Man(a1-3)[Fuc(a1-2)Gal(b1-3)[Fuc(a1-4)]GlcNAc(b1-2)Man(a1-6)]Man(b1-4)GlcNAc(b1-4)[Fuc(a1-6)]GlcNAc(b1-4)[Fuc(a1-6)]GlcNAc
# How it was run: as §1
# [20] = molecular target: Fuc(a1-2)Gal(b1-3)[Fuc(a1-4)]GlcNAc(b1-3)[Fuc(a1-3)[Gal(b1-4)]GlcNAc(b1-6)]Gal(b1-4)Glc
# How it was run: as §1
# [21] = molecular target: Fuc(a1-2)Gal(b1-3)[Fuc(a1-4)]GlcNAc(b1-3)[Gal(b1-4)GlcNAc(b1-6)]Gal(b1-4)Glc
# How it was run: as §1
# [22] = molecular target: Fuc(a1-2)Gal(b1-4)Glc
# How it was run: as §1
# [23] = molecular target: Fuc(a1-2)Gal(b1-4)Glc6S
# How it was run: as §1
# [24] = molecular target: Fuc(a1-2)Gal(b1-4)GlcNAc
# How it was run: as §1
# [25] = molecular target: Fuc(a1-2)Gal(b1-4)GlcNAc(b1-2)Man
# How it was run: as §1
# [26] = molecular target: Fuc(a1-2)Gal(b1-4)GlcNAc(b1-2)Man(a1-3)[Fuc(a1-2)Gal(b1-4)GlcNAc(b1-2)Man(a1-6)]Man(b1-4)GlcNAc(b1-4)GlcNAc
# How it was run: as §1
# [27] = molecular target: Fuc(a1-2)Gal(b1-4)GlcNAc(b1-2)Man(a1-3)[Fuc(a1-2)Gal(b1-4)GlcNAc(b1-2)Man(a1-6)]Man(b1-4)GlcNAc(b1-4)[Fuc(a1-6)]GlcNAc
# How it was run: as §1
# [28] = molecular target: Fuc(a1-2)Gal(b1-4)GlcNAc(b1-2)[Fuc(a1-2)Gal(b1-4)GlcNAc(b1-4)]Man(a1-3)[Fuc(a1-2)Gal(b1-4)GlcNAc(b1-2)Man(a1-6)]Man(b1-4)GlcNAc(b1-4)GlcNAc
# How it was run: as §1
# [29] = molecular target: Fuc(a1-2)Gal(b1-4)GlcNAc(b1-3)Gal(b1-4)GlcNAc
# How it was run: as §1
# [30] = molecular target: Fuc(a1-2)Gal(b1-4)GlcNAc(b1-3)Gal(b1-4)GlcNAc(b1-2)Man(a1-3)[Fuc(a1-2)Gal(b1-4)GlcNAc(b1-3)Gal(b1-4)GlcNAc(b1-2)Man(a1-6)]Man(b1-4)GlcNAc(b1-4)GlcNAc
# How it was run: as §1
binder,measurement,setting,value
PX14343A-bvu-539-29-539 (Bacteroides vulgatus) (protein) DSLTESSSNTFWQTPDDALMALASCYDALQSNQLYNSDQYSLGPLYMDCISDNGGHFNWSGWMEGYDMAMGIHTPSSSIIGSYWKDCYEVISRCNVLIANIDRVDMDASQKAIYQAEAKTIRALMYINLTMTYQDVPFLTAPLTIDEAECEKTDRAAIVAHVMTDLQDAAEVLPQNASSRGHITKGAALSLLGRVALYNEKWDDAIAAYKQVQGLGYSLDPSYAKLFTQSGETSPEIIFAVRYEGPGMSEGAAFNAHWNTPLEAMNGTIDLADAYYCKDGKPTTDTKIAELNGGGGLDVSKPNPAHFENRDPRLYSTLFVPGMLWNGKGGIDTSASNPYANVYGGAAASLSTVYVYKYFDPTDTSNSWDNGQDFYVVRYAEVLLSLAEAMVQKGGYVYSDVTALVNEVRQRADVNMPTVEEVEGTSLSKDELLEVIKHERRVELAFEGLRLFDLYRWKELDKAVANIENERTMYGLAYEARKFNGERDYVWPLPTAELDTNKKLVQHDLWK,glycan array binding signal (z-score),[1],-0.27
same,glycan array binding signal (z-score),[2],-0.467
same,glycan array binding signal (z-score),[3],-0.355
same,glycan array binding signal (z-score),[4],-0.346
same,glycan array binding signal (z-score),[5],-0.015
same,glycan array binding signal (z-score),[6],-0.346
same,glycan array binding signal (z-score),[7],-0.271
same,glycan array binding signal (z-score),[8],-0.028
same,glycan array binding signal (z-score),[9],-0.158
same,glycan array binding signal (z-score),[10],1.93
same,glycan array binding signal (z-score),[11],-0.207
same,glycan array binding signal (z-score),[12],-0.39
same,glycan array binding signal (z-score),[13],-0.03
same,glycan array binding signal (z-score),[14],-0.115
same,glycan array binding signal (z-score),[15],-0.213
same,glycan array binding signal (z-score),[16],-0.374
same,glycan array binding signal (z-score),[17],-0.495
same,glycan array binding signal (z-score),[18],-0.09
same,glycan array binding signal (z-score),[19],-0.092
same,glycan array binding signal (z-score),[20],-0.261
same,glycan array binding signal (z-score),[21],-0.071
same,glycan array binding signal (z-score),[22],-0.057
same,glycan array binding signal (z-score),[23],-0.328
same,glycan array binding signal (z-score),[24],-0.293
same,glycan array binding signal (z-score),[25],-0.324
same,glycan array binding signal (z-score),[26],0.292
same,glycan array binding signal (z-score),[27],-0.146
same,glycan array binding signal (z-score),[28],-0.05
same,glycan array binding signal (z-score),[29],-0.248
same,glycan array binding signal (z-score),[30],8.08
